In publication PMC4336329 (PLoS ONE, 2015):
Out of some 310,000 compounds screened, about 14,000 (4.5%) showed an effect of 50% or more. Effects have a minus sign here. The list shows a part of the results.

Each molecule was assayed against human ether-à-go-go-related gene (hERG) potassium channel (human, UniProt Q12809) (assay: primary screen, population patch clamp on CHO cells stably expressing hERG).
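Further: peak tail current of the secondary pulse compared with the same well before compound.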

human ether-à-go-go-related gene (hERG) potassium channel, sequence (Q12809 whole entry, looked up): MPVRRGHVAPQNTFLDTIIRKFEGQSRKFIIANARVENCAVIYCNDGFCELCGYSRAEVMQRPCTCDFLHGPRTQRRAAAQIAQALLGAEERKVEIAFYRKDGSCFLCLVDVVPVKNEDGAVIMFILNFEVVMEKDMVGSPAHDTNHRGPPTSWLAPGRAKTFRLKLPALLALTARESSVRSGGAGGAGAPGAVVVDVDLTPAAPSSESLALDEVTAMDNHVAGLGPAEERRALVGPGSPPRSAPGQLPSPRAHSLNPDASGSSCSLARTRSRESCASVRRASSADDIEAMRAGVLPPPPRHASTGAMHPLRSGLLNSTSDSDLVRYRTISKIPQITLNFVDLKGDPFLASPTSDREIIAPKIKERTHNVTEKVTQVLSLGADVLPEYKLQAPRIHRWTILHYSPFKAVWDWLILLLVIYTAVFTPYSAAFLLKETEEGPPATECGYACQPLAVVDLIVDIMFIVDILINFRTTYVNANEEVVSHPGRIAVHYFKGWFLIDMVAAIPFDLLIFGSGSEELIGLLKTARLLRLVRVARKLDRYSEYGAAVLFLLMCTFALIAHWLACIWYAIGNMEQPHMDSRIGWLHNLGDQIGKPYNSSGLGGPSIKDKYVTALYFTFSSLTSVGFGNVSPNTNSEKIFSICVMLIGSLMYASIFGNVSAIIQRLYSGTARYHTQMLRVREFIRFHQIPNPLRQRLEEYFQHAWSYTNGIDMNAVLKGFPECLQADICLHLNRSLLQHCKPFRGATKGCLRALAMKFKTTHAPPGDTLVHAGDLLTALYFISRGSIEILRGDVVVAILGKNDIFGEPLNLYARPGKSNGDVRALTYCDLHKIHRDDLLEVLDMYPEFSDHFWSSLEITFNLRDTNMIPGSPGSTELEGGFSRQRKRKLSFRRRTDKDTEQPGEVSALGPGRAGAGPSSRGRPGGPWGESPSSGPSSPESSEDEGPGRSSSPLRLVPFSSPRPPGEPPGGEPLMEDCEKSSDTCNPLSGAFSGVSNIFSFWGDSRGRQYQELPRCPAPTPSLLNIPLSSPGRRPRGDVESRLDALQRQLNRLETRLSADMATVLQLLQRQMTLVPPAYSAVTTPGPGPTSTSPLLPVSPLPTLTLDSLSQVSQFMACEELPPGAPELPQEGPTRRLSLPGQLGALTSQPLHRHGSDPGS

Row | SMILES | hERG current change (%, negative = inhibition) at 10uM [%]
1 | O=C(COc1ccccc1)N(Cc1cccc(F)c1)C1CCS(=O)(=O)C1 (stereo not drawn) | -15.5
2 | Cc1ccc(-c2nc(SC(C)C(=O)c3c(N)n(C)c(=O)n(C)c3=O)n[nH]2)cc1 (stereo not drawn) | 4.53
3 | CCOc1ccc(NC(=O)C2CCN(S(C)(=O)=O)CC2)cc1 | 22.2
4 | O=C(Cc1ccccc1)Nc1ccc(NC(=O)c2cccs2)cc1 | 17.5
5 | CN1CN(C)C(c2ccncc2)=C1c1ccncc1 | 19.5
6 | Cc1ccc(-c2cccc(C3CC=CC4C3C(=O)N(Cc3ccccc3)C4c3ccc4ccccc4c3)c2)cc1 (stereo not drawn) | 18.8
7 | Cc1ccc(C(=O)O)cc1N=Nc1c(O)[nH]c(=O)[nH]c1=O | 25.4
8 | O=C(O)/C(=C/c1ccco1)c1ccccc1 | 33
9 | O=C(Nc1nc(-c2nc3ccccc3s2)cs1)c1ccc(S(=O)(=O)N2CCOCC2)cc1 | -4.79
10 | CC(C)c1nc(SCc2ccccn2)c2c(=O)n(C)c(=O)n(C)c2n1 | 5.32
11 | CCOc1ccc(C(=O)C(C)=O)c(OCC)c1 | 9.68
12 | COc1ccc2c(c1OC)C(=O)N1C2SC(C)(C)[C@H]1C(=O)NCCCOC(C)C (stereo partly drawn) | 24.2
13 | CC1CCN(CC(CS(=O)(=O)c2ccc([N+](=O)[O-])cc2)N2CCC(C)CC2)CC1 (stereo not drawn) | -62.1
14 | Nc1nn2c(-c3ccccc3)cc(=O)[nH]c2c1N=Nc1ccc(O)cc1 | -4.22
15 | O=c1[nH]c(CN2CCN(S(=O)(=O)/C=C/c3ccccc3)CC2)nc2ccccc12 | -66.5
16 | CCCc1nnc(NC(=O)CCS(=O)(=O)Cc2ccccc2)s1 | -18.6
17 | COc1cc2c(cc1OC)CC1(CCCCC1)N=C2.Cl | -26.2
18 | COCCn1c(SCC(=O)N(C(C)C)C(C)C)nnc1-c1cc2ccccc2cc1O | -15.8
19 | CC1CCN(S(=O)(=O)c2ccc3c(c2)c(=O)c(C(=O)NCc2cccs2)cn3C)CC1 | -4.13
20 | CS(=O)(=O)Nc1ccc(Cc2ccc(NS(C)(=O)=O)cc2)cc1 | -12
21 | O=C(O)c1cc(S(=O)(=O)Nc2ccc(OCc3ccccc3)cc2)ccc1Br | 15
22 | COC(=O)c1ccc(N(CC(=O)NCC2CCCO2)C(=O)CCC(=O)Nc2cc(C)on2)cc1 (stereo not drawn) | 11.9

Row | SMILES | hERG current change (%, negative = inhibition) at 10uM [%]
23 | S=C(NCCC1=CCCCC1)NCc1ccco1 | 11.6
24 | CCOC(=O)N1CCN(C(=O)c2ccc(N3CCCC3=O)cc2)CC1 | 14.8
25 | CCN(CC)CC(=O)Nc1sc2c(c1C(=O)c1ccccc1OC)CCC2 | 17.1
26 | COc1ccc(-c2ccnc3c(C#N)cnn23)cc1 | 6.06
27 | O=C(CSc1nnc(COc2ccccc2)n1-c1ccccc1)c1ccccc1 | 11.2
28 | CSc1ccc(Cl)c(C(=O)Nc2ccc(C)cn2)c1 | 12.1
29 | CCCC/C(=N\O)c1c[nH]c2ccccc12 | -4.11
30 | CCC(=O)Nc1ccc(-c2csc(C)n2)cc1 | -4.34
31 | Cc1cccc(-n2c(O)c(C=Nc3ccccc3O)c3ccccc3c2=O)n1 | 6.45
32 | CCCCNCCCOc1cccc(Cl)c1Cl | -23.6
33 | CN(C(=O)C1CCCO1)C1CCS(=O)(=O)C1 (stereo not drawn) | -0.467
34 | Cc1oc(-c2ccccc2)nc1CS(=O)CC(=O)NC1CCCCCC1 (stereo not drawn) | -11.5
35 | CCN(CC)CCN(C(=O)c1ccc2c(c1)CCCC2)c1nc2ccc(C)cc2s1.Cl | 10.1
36 | Cc1nn(CCOc2ccccc2)c(=O)n1-c1ccc(F)cc1 | -2.37
37 | CC(=O)c1nnn(-c2ccc(F)cc2F)c1C | 11.8
38 | CCCCN(C)CCNC(=O)Cn1ncc2c(=O)oc3ccc(C)cc3c21 | -27.2
39 | Clc1ccc(SCc2cn3ccsc3n2)cc1 | -12.3
40 | CC(C)(C)Oc1ccccc1Nc1nc(NCCO)nc(N2CCCC2)n1 | -6.92
41 | CCN(c1ccccc1)S(=O)(=O)c1ccc(Cl)c(NC(=O)CSc2n[nH]c(N)n2)c1 | -15.3
42 | CCN1/C(=C\C(=S)Nc2ccccc2)Sc2ccccc21 | 10.3
43 | Cc1ccc(OCC(=O)Nc2ccc3c(c2)C(=O)N(CCC(=O)O)C3=O)cc1 | -16.5
44 | O=C(c1ccncc1)N1CCN(S(=O)(=O)c2ccccc2Br)CC1 | 4.86

Row | SMILES | hERG current change (%, negative = inhibition) at 10uM [%]
45 | CN(C)S(=O)(=O)c1ccc(S(=O)(=O)N2CCCC2)cc1 | 8.88
46 | Cc1ccc(NC2=C(Cl)C(=O)OC2OC(=O)c2ccco2)cc1C (stereo not drawn) | -46.5
47 | CCOC(=O)c1cc2sc(C)cc2n1CC(=O)N1CCOCC1 | 7.06
48 | NC(=O)C1CCN(C(=O)C2c3ccccc3C(=O)N3CCc4ccccc4C23)CC1 (stereo not drawn) | -13.2
49 | CCN1C(=O)[C@H]2[C@@H](c3ccc(-c4ccc5c(c4)OCO5)c(OC)c3)N[C@@](Cc3ccccc3)(C(=O)OC)[C@H]2C1=O.O=C(O)C(F)(F)F | 11
50 | CCOC(=O)N1CC=C2C(C#N)=C(N)C(C#N)(C#N)[C@H](c3ccc(OC(C)C)c(OCC)c3)[C@H]2C1 | -4.36
51 | CCOC(=O)C1(Cc2ccc(Cl)cc2)CCN(Cc2ccon2)CC1 | -49.5
52 | CC(C)(C)C(=O)Nc1cccc(-c2cc(-c3c(Cl)cccc3Cl)no2)c1 | -4.59
53 | Cc1cccn2c(CNCC3OCCc4ccccc43)c(C(=O)N3CCCCC3)nc12 (stereo not drawn) | -19.5
54 | Cc1ccsc1/C=N/NC(=O)CO | 15.3
55 | CCCn1c(=O)c(C(=O)NNC(=O)c2cccc([N+](=O)[O-])c2)c(O)c2ccccc21 | -21.7
56 | O=C(COc1ccc2ccc(=O)oc2c1)NCC(O)c1ccccc1 (stereo not drawn) | 5.75
57 | CC(=O)N1CCc2c(sc(NC(=O)Cc3ccc(C)cc3C)c2C#N)C1 | 9.76
58 | O=c1[nH]c(C2CCCN(S(=O)(=O)c3ccc(F)cc3)C2)nc2c1nnn2Cc1ccc(F)cc1 (stereo not drawn) | -25.8
59 | OCCC1CN(CCCc2ccccc2)CCN1Cc1ccccc1 (stereo not drawn) | -64
60 | CN(CC(=O)O/N=C(\N)c1ccc([N+](=O)[O-])cc1)S(=O)(=O)c1ccccc1 | -17.3
61 | Cc1nnc(SCC(=O)NCc2ccccc2)s1 | 12.6
62 | O=P(OCC(F)(F)C(F)F)(N1CCCCC1)N1CCCCC1 | 0.612
63 | COc1ccc(/C=C(\NC(=O)c2ccc(C)cc2)C(=O)NCCCN2CCOCC2)cc1OC | 19.9
64 | CCOC(=O)c1sc2nc(C)nc(NCc3cccnc3)c2c1C | -9.36
65 | O=C1CC(NCc2ccc3c(c2)OCO3)C(=O)N1Cc1ccc2c(c1)OCO2 (stereo not drawn) | -4.06
66 | CCOC(=O)COc1ccc(/C=C/[N+](=O)[O-])c(OCC(=O)OCC)c1 | 2.96

Row | SMILES | hERG current change (%, negative = inhibition) at 10uM [%]
67 | C/C(=N\N1CCN(C)CC1)c1c(O)[nH]c(=O)[nH]c1=O | 5.21
68 | COc1ccccc1CNc1cc(C)ccn1 | 7.76
69 | c1ccc(-n2nc3ccccc3n2)cc1 | 0.848
70 | COCCN(Cc1ccccc1)C(=O)Cc1ccc(S(=O)(=O)N2CCOCC2)s1 | -22.5
71 | CCOc1ccc(NC(=O)CSC2=C(C#N)C(c3ccc4c(c3)OCO4)CC(=O)N2)cc1 (stereo not drawn) | -5.62
72 | Cc1sc2nc(C3CC3)nc(SCC(=O)NCc3ccco3)c2c1C | 5.51
73 | CO[C@@H]1[C@@H](OC(N)=O)[C@@H](O)C(Oc2ccc3c(O)c(NC(=O)c4ccc([O-])c(CC=C(C)C)c4)c(=O)oc3c2C)OC1(C)C.[Na+] (stereo partly drawn) | -3.04
74 | O=C1C2CCCN2C(c2cccc(Cl)c2)N1c1ccccn1 (stereo not drawn) | 1.1
75 | COc1cccc(CNc2ccc(S(=O)(=O)Nc3nccs3)cc2)c1O | 1.54
76 | NC(N)=NS(=O)(=O)c1ccc(NC(=S)NC(=O)c2sc3ccccc3c2Cl)cc1 | 21.1
77 | COc1cc(NC(=O)c2sc3nc(C)nc(N4CCOCC4)c3c2C)cc(OC)c1OC | 15.9
78 | CCCOC(=O)c1ccc(NC(=O)CN(C)Cc2cccs2)cc1 | 4.26
79 | CN(C(=O)COC(=O)CCc1nc2ccccc2c(=O)[nH]1)C1CCS(=O)(=O)C1 (stereo not drawn) | 15.9
80 | C/C(=N\O)c1ncc(C(F)(F)F)cc1Cl | -17.9
81 | O=C(Nc1cccc(S(=O)(=O)N2CCOCC2)c1)c1c2c(nc3ccccc13)CCC2 | 1.27
82 | CCOc1ccc2nc(N3CCC(C(=O)NC4CCCCC4)CC3)sc2c1 | 11.2
83 | COc1cccc(NC(=O)CSc2nc3ccccc3c(=O)n2CCCC(=O)NCCCN2CCOCC2)c1 | -59.8
84 | Clc1cccc(Cl)c1Cn1ccc(C2CC2)n1 | -17.3
85 | CS(=O)(=O)N1CCc2cc(C(=O)OCC(=O)c3ccccc3)ccc21 | 10.1
86 | CS(=O)(=O)c1cccc(-c2nnc(NC(=O)CCS(=O)(=O)c3ccccc3)o2)c1 | 3.82
87 | CCOc1cc(C2Nc3ccccc3C(=O)N2c2ccccc2OC)ccc1O (stereo not drawn) | 1.46
